Data reported in ChEMBL document CHEMBL4888484, “Replenishing the malaria drug discovery pipeline: Screening and hit evaluation of the MMV Hit Generation Library 1 (HGL1) against asexual blood stage Plasmodium falciparum ,using a nano luciferase reporter read-out” (2022).
Among all 150,000 compounds or so, about 540 (0.36%) showed an effect of 50% or more. Some of the results follow.

tested on: Plasmodium falciparum; assay: Primary screen in NF54 nanoGlo assay, in single point, at 2uM, 72h; a lower Z score goes with more inhibition; format: functional, Erythrocyte; conditions: timepoint 72 hour

SMILES	% Inhibition [%]	Z score
CCOC(=O)N1CCC2(CC1)N=C(c1ccccc1O)C[C@@H](c1cc(F)ccc1F)N2	-2	0.3
Cc1ccc2nc(NC(=O)CCC(=O)c3ccccc3)sc2c1	1	-0.05
O=c1[nH]nc(Cn2ccnc2C2CC2)s1	-7	0.69
COc1cccc2c(C(=O)N3CCN(C)CC3(C)C)n[nH]c12	4	-0.56
O=C(CC12CCCCC1C2(F)F)Nc1ccccc1Nc1ccncc1 (stereo unspecified)	-9	1.36
CCCN(C(=O)C1CCCc2nn(C)cc21)C1CC(=O)N(C)C1=O (stereo unspecified)	-22	2.99
Cc1nc(C)n(CCc2nc3c([nH]2)C[C@H](c2ccc(Cl)cc2)CNC3=O)n1	-9	1.39
COCCN1CCC(CN(Cc2ccncc2)Cc2nc3ccccc3n2C)CC1	0	0.04
NS(=O)(=O)Cc1ccc(Br)cc1F	-9	1.35
CC1(C)[C@H]2CC=C(CN3C[C@@H]4[C@H](C3)[C@H]4C(=O)NCc3ccccn3)[C@@H]1C2	-12	1.16
COc1ncccc1CN(C)C1(CO)CCOCC1	-8	0.84
Cc1cccn2cc(CN3CCN(C(=O)c4ccc(-c5ccccc5)cc4)CCC3=O)nc12	-12	1.31
Cc1[nH]nc(CN[C@H]2CCO[C@@H]2c2cc[nH]n2)c1C	4	-0.7
COc1ccc(-c2cc3c(N4CCCCCC4)nccn3n2)cc1OC	28	-3.79
CCC(CC)CN(CC)C(=O)c1ncc(Br)s1	-9	0.8
CC(C)[C@@H]1NC(=O)N(Cc2ccc3nonc3c2)C1=O	-21	2.42
COc1ccc([C@H](C)NC(=O)c2nn(-c3ccc(F)cc3)c3ccccc3c2=O)cc1OC	-2	0.3
COCCNC(=O)[C@@]12CCCC[C@H]1N(C1CC1)S(=O)(=O)CC2	-7	0.8
CCCS(=O)(=O)N1CCC[C@H](C(=O)Nc2nc(CC(=O)OCC)cs2)C1	-3	0.38
CC[C@H](NCc1nc(-c2ccncn2)no1)c1ccc(C)cc1	-6	0.76
COCc1nn(CC(=O)NC2CCC2)c(=O)n1-c1ccc2c(c1)OCO2	18	-1.68
Cn1ccnc(N2CCN(CCCOCC(F)(F)F)CC2)c1=O	-6	1.21

SMILES	% Inhibition [%]	Z score
CC1CCN(C(=O)Cc2csc(NC(=O)c3cccc(O)c3)n2)CC(C)C1 (stereo unspecified)	35	-4.49
O=C(NS(=O)(=O)[C@H]1CCCOC1)c1cc(F)cc(F)c1	-10	1.96
NC(=O)c1ccc(S(=O)(=O)N2CCN(Cc3ccc4c(c3)CCO4)CC2)cc1	-14	2.2
CC(C)(N)C(=O)Nc1cc(CCc2ccccc2)[nH]n1	-3	0.45
CC1(C)COc2cc(-c3cccnc3)ccc21	-5	0.92
O=C(NCc1ccccc1C(F)(F)F)c1nnn(-c2ccccc2F)c1-c1cccnc1	-3	0.39
CC(C)(C)NC(=O)C1CCCCN1C(=O)C1CCCO1 (stereo unspecified)	-1	0.1
CC[C@H](C)S(=O)(=O)NC(=O)c1cnn(C)c1C	-13	1.68
O=C(NCc1ccccc1F)[C@H]1CCCN(C2CCN(Cc3cccnc3)CC2)C1	5	-0.72
COC(=O)CCC(C)(C)NC(=O)c1ccnc(C)n1	-3	0.37
CC(C)[C@H]1CCCN(Cc2cccc(OCc3ccc(F)cc3F)c2)CC1	-18	1.98
CN(C)CCN(CCc1ccccc1)c1ccc(C(=O)Nc2ccccc2)nn1	1	-0.12
Cn1cccc1C(=O)CN1CCN(S(C)(=O)=O)c2ccccc2C1	-4	0.56
CC(C)C(=O)N(Cc1ccccc1OS(=O)(=O)c1ccc(F)cc1)C[C@H]1CCCO1	-4	0.43
COc1ccsc1S(=O)(=O)N(C)Cc1cn(C)nc1C(F)(F)F	-2	0.31
c1ccc2c(c1)c1c(n2Cc2ccncc2)CCCNC1	-4	0.59
CN(C(=O)c1ccco1)[C@@H](Cc1ccc(F)cc1F)C1CCN(Cc2ccc3c(c2)CCO3)CC1	-13	1.81
COc1ccc(CN(CC(C)C)C(=O)NC(C)C)cc1OS(=O)(=O)C(C)C	-21	2.02
Cc1cc(CN(C)c2ncc(F)cn2)no1	-2	0.18
Cc1nc(N)sc1-c1ccn(Cc2ccncc2)n1	-18	2.26
CN(Cc1nccn1C)C(=O)c1cnnn1-c1ccccc1	12	-1.64
